Where “and” joins values, the source holds several entries; their conditions need not be identical. Equal entries are not always repeated. The list shows a part of the results. Shown are side measurements of this screen, not its main read-out; they come without a call. Words in brackets tell the shape of the fitted curve; partial curves, single points and poor fits give uncertain potencies.
Assay: qHTS drug screen for cell cycle checkpoint inhibitors in PARPi-resistant BRCA-mutant ovarian cancer cell lines. (AID 1963452)
Conditions: PEO1/OlaR viability, CellTiter-Glo luminescence, 96 h
Method in brief: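 PEO1, PEO4 and PEO1/OlaR ovarian cancer cells, 600 per well, exposed 96 h at 37C to a dilution series. Viability read by CellTiter-Glo luminescence, normalized to DMSO and empty wells; activity summarized as Z-AUC.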

[1] = measured here: PEO1 parental viability
Tags give direction and shape of the fitted curve.

SMILES | AC50 (measured here: PEO4 viability) | AC50 [1]
O=C(CN1C(=O)C2(CCCC2)NC[C@H]1c1cc(F)cc(F)c1)Nc1ccc2c(c1)C[C@@]1(C2)C(=O)Nc2ncccc21 | 0.0039 µM [rising, full curve, poor fit] | 
COc1cccc(Nc2c(C(N)=O)cnc3c(C)cc(S(=O)(=O)c4cccc(C(=O)N(C)C)c4)cc23)c1 | 0.0087 µM [rising, full curve, poor fit] | 
C#CC[C@H](c1nc2cc(Cl)ccc2c(=O)n1Nc1ccccc1)N(CCCN)C(=O)c1cccc(Cl)c1F | 1.1 µM [falling, full curve] | 1.1 µM [falling, full curve]
CC(=O)N1CCN(CCOc2ccc(C3CCN(C4=Nn5c(nnc5C(F)(F)F)CC4)CC3)cc2)CC1 | 7.76 µM [falling, partial curve] | 8.71 µM [falling, partial curve, poor fit]
CNCCCOc1cc(F)c(-c2c(Cl)nc3ncnn3c2N[C@@H](C)C(F)(F)F)c(F)c1 | 0.049 µM [falling, full curve] | 0.0195 µM [falling, full curve]
Cn1cc(-c2cc(Oc3cc(F)c(NC(=O)C4(C(=O)Nc5ccccc5)CC4)cc3F)ccn2)cn1 | 17.4 µM [falling, partial curve] | 15.5 µM [falling, partial curve]
O=C(CCCCCCNC(=O)c1cnc(N(c2ccccc2)c2ccccc2Cl)nc1)NO | 19.5 µM [falling, partial curve] | 13.8 µM [falling, partial curve]
CC[C@]12C=CCN3CC[C@@]4(c5cc([C@@]6(C(=O)OC)C[C@H]7C[C@@H](C(C)(F)F)CN(Cc8c6[nH]c6ccccc86)C7)c(OC)cc5N(C)[C@H]4[C@@](O)(C(=O)OC)[C@@H]1OC(C)=O)[C@@H]32 | 230 nM [falling, full curve] and 275 nM [falling, full curve] | 145 nM [falling, full curve] and 776 nM [falling, full curve]
C=C1CC[C@@H]2[C@](C)(CO)[C@H](O)CC[C@@]2(C)[C@@H]1C/C=C1/C(=O)OC[C@H]1O | 8.71 µM [falling, partial curve] | 12.3 µM [falling, partial curve]
C/C(=C\c1csc(C)n1)[C@@H]1C[C@@H]2O[C@]2(C)CCC[C@H](C)[C@H](O)[C@@H](C)C(=O)C(C)(C)[C@@H](O)CC(=O)N1 | 0.123 µM [falling, full curve] | 0.174 µM [falling, full curve]
COCC(=O)NC/C=C/c1ccc2ncnc(Nc3ccc(Oc4ccc(C)nc4)c(C)c3)c2c1 | 11 µM [falling, partial curve] | 17.4 µM [falling, single point]
NC(=O)c1cnc2[nH]ccc2c1NC1C2CC3C[C@H]1CC(O)(C3)C2 (some centres not stated) | 6.92 µM [falling, partial curve, poor fit] | 11 µM [falling, partial curve]
CCN1C(=O)N2Cc3cc(OC)cc(OC)c3[C@@H](C)C=C2C12CCN(Cc1cc(C)cc(C)c1)CC2 | 15.5 µM [falling, single point] | 21.9 µM [falling, single point]
CC(C)(C)c1cc(C(C)(C)C)c(NC(=O)c2c[nH]c3ccccc3c2=O)cc1O | 24.5 µM [falling, single point] | 17.4 µM [falling, single point]
C/C(=N\NC(=S)N1CCC1)c1ccccn1 | 0.0436 µM [falling, full curve] | 1.74 µM [falling, partial curve]
CCN(CCO)CCCOc1ccc2c(Nc3cc(CC(=O)Nc4cccc(F)c4)[nH]n3)ncnc2c1 | 2.45 µM [falling, partial curve, poor fit] | 
CCn1c(=O)c(-c2ccc(-c3cncs3)cc2Cl)cc2cnc(Nc3ccc(N4CCN(C)CC4)cc3)nc21 | 19.5 µM [falling, single point] | 
O=C(C1CC1)N1CC[C@@H](Cn2c(-c3ccc(-c4ccc5occc5c4)cc3)nc3cnccc32)C1 | 11 µM [falling, partial curve, poor fit] | 13.8 µM [falling, single point]

Reference: PubChem BioAssay (NCATS)
